Measurements reported in the supplement of paper PMC10338343.
± gives the standard deviation. The entries are a selection whose mix differs from that of the whole data set.

System: MIWI (PIWIL1) piRISC loaded with L1MC piRNA (30 nt)
Assay: pre-steady-state target cleavage rate (min^-1); MIWI and MILI are mouse PIWI proteins and EfPiwi is from a freshwater sponge; tags in brackets are library labels; higher = faster piRNA-guided slicing of the target
Conditions: guide: L1MC piRNA 5'p-UAACUAAAUACUAUGCAAGCUGUAGGUCCU
Outline: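 Reactions were run for 0–8 or 0–960 min at 33 °C in HEPES–potassium acetate buffer, combining 1 nM active affinity-purified piRISC with one synthetic guide, […] transcribed, DNA-blocked target RNA library and, in some cases, 500 nM GTSF1 partner protein. Sequencing of uncleaved targets followed, with normalisation to depth and to weakly complementary targets. Three trials were pooled, k3 was capped at 0.0001 min^-1, and the pre-steady-state cleavage rate was taken from a burst-and-steady-state fit.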

[1] = auxiliary factor: 500 nM mouse GTSF1
[2] = auxiliary factor: none (no GTSF1)
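Also: 1 nM active piRISC with 0.1 nM target library at 33 °C single turnover.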

| Sequence | pre-steady-state target cleavage rate [1] | pre-steady-state target cleavage rate [2] |
| --- | --- | --- |
| UCCUGGUACACCUUGCAUAGUAAUUAGUUA | 0.546 ± 0.1 | 0.00728 ± 0.0025 |
| UCCUGGAUCAGCUUGCAUUGUAUUUAGUAA | 0.379 ± 0.026 | 0.0124 ± 0.0045 |
| UGGACCUACAGCUUGCAUUGUAUAUAGUUA | 0.52 ± 0.033 | 0.0151 ± 0.0056 |
| AGGACCUAGAGCUUGCAUAGUAAUUAGUUA | 0.747 ± 0.047 | 0.0277 ± 0.0076 |
| UCCUGGAACAGCUUGCAUACUAUUUUGUUA | 0.134 ± 0.015 | 0.0133 ± 0.0031 |
| UCCUGGAUCAGCUUGCAUAGUAUUUAGAUUA | 0.16 ± 0.02 | 0.017 ± 0.0039 |
| UGGACCUUGUGCUUGCAUAGUAUUUAGUUA | 0.902 ± 0.071 | 0.0399 ± 0.0093 |
| UCCUCCUAUAGCUUGCAUAGUAUUUAGUUA | 0.705 ± 0.024 | 0.0464 ± 0.0082 |
| UCCACCUACAGCUUGCAUAGUAGUUUAGUUA | 0.357 ± 0.019 | 0.00828 ± 0.0029 |
| AGGACCUACAGUCUUGCAUAGUAUUUAGUUA | 1.16 ± 0.091 | 0.0691 ± 0.014 |
| AGGUGCUACAGCUUGCAUAGUAUUUAGUAA | 0.603 ± 0.067 | 0.0325 ± 0.006 |
| UCCUGCAACAGCAUGCAUAGUAUUUAGUUA | 1.36 ± 0.087 | 0.0331 ± 0.0088 |
| AGGACCAACAGCUUGCAAAGUAUUUAGUUA | 1.18 ± 0.038 | 0.0503 ± 0.01 |
| UCCUGGAUGUGCUUGCAUAGUAUUUAGUUC [g2:g20:cont:t1C] | 0.254 ± 0.018 | 0.0341 ± 0.008 |
| UGGACCUACAGCUUGCAUAGUAUUUAGGUA | 0.376 ± 0.033 | 0.0312 ± 0.0059 |
| UCGACCUACUGCUUGCAUAGUAUUUAGAAA | 0.259 ± 0.027 | 0.00884 ± 0.0021 |
| AGGACCUACAGCUUGCAUACAAUUUAGUUA | 0.0176 ± 0.007 | 0.00379 ± 0.0032 |
| UCCUGGAUCAGCUUGCAUAGUAUUUAGAAA | 0.424 ± 0.047 | 0.00625 ± 0.0026 |
| UCCUGGAUGAGCUUGCAUAGUAUCUAGUUA | 0.448 ± 0.043 | 0.0464 ± 0.011 |
| UCCUGCUAGAGCUUGCAAAGUAUUUAGUUA | 0.403 ± 0.037 | 0.0176 ± 0.0047 |

| Sequence | pre-steady-state target cleavage rate [1] | pre-steady-state target cleavage rate [2] |
| --- | --- | --- |
| UCCUGGUACAGCUAGCAAAGUAUUUAGUUA | 0.564 ± 0.049 | 0.0116 ± 0.003 |
| UGGACCUACAGGUUGCAUAGUAUAUAGUUA | 0.549 ± 0.056 | 0.0198 ± 0.0053 |
| UCCUGGAUGACCUUGCAUAGUAUUUUGUUA | 0.0626 ± 0.013 | 0.00725 ± 0.0021 |
| UCCUGGAUCAGCUUGCUAAGUAUUUAGUUA | 0.0172 ± 0.0046 | 0.0042 ± 0.0023 |
| AGGACCUACAGCUUGCAUACUAUUUAGUUA | 0.451 ± 0.029 | 0.0411 ± 0.0076 |
| UCCUGGAUGAGCUUGCAUACUAUUUACUUA | 0.0812 ± 0.02 | 0.00894 ± 0.0034 |
| UCCUCCUACACCUUGCUUAGUAUUUAGUUA | 0.807 ± 0.056 | 0.0231 ± 0.0042 |
| UCCACCUACAGCUAGCAUAGUAUUUAGUAA | 0.413 ± 0.045 | 0.00723 ± 0.0023 |
| UCCACCUACAGCUAGCUUAGUAUUUAGUUA | 0.749 ± 0.035 | 0.00804 ± 0.0022 |
| UCCUCCUACAGCUUGCAUAGUUUUUUGUUA | 0.253 ± 0.024 | 0.0262 ± 0.0061 |
| AGGACCUACAGGUUGCAUAGUAUUUACAAA | 0.373 ± 0.054 | 0.00359 ± 0.0023 |
| UCCUGGAACAGCUUGCAUAGUAUUUAGUUU [g2:g23:cont:t1U] | 0.994 ± 0.031 | 0.0717 ± 0.015 |
| AGGAGGUACAGCUUGCAUAGUAUUUAGAAA | 0.324 ± 0.044 | 0.0123 ± 0.0037 |
| UCCUCCUACAGCUUGCAUAGUAUCUAGUUA | 0.492 ± 0.029 | 0.0356 ± 0.0051 |
| UCCUCCUUCAGCUUGCAUAGUAUUUUGUUA | 0.637 ± 0.047 | 0.0216 ± 0.004 |
| UCCUGGAACAGCUUGCAUAGUAUUUAGGUUA | 0.503 ± 0.041 | 0.0424 ± 0.0059 |
| UGGACCUACAGCUUGCAUAGAAUUUAGAAA | 0.293 ± 0.04 | 0.00777 ± 0.003 |
| UCCUGGAACUGCUUGCAUACUAUUUAGUUA | 0.225 ± 0.017 | 0.0166 ± 0.0051 |
| UCCUCCUACAGCUAGCAUAGUAUUUACUUA | 0.395 ± 0.034 | 0.0115 ± 0.0024 |
| ACGACCUACAGCUUGCAUAGUAUUAAGUUA | 0.678 ± 0.029 | 0.0377 ± 0.0092 |

| Sequence | pre-steady-state target cleavage rate [1] | pre-steady-state target cleavage rate [2] |
| --- | --- | --- |
| UCCUGCUACAGGUUGCAUAGUAAUUAGUUA | 0.851 ± 0.08 | 0.0111 ± 0.0023 |
| UCCUGCUUCAGCUUGCAUAGUAUUUUGUUA | 0.737 ± 0.034 | 0.037 ± 0.0071 |
| UCCUGGAUGAGCUUGGAUAGAAUUUAGUUA | 0.0997 ± 0.029 | 0.0213 ± 0.0075 |
| UGGACCUACAGCUUGCAAAGUAUUUACUUA | 0.379 ± 0.03 | 0.0205 ± 0.0043 |
| UGGACCUAGAGCUUGCAUAGUAUUUUCAAA | 0.16 ± 0.026 | 0.00346 ± 0.0032 |
| UCCUGGAACAGCUUGCAUAGUUUUAAGUUA | 0.13 ± 0.018 | 0.0139 ± 0.0037 |
| UCCUGGAUGAGCUUGCAUAGAAUUUAGUAA | 0.263 ± 0.044 | 0.00788 ± 0.0033 |
| UCCACCUACAGCUUGCAUAGUAUUAAGUAA | 0.314 ± 0.039 | 0.00793 ± 0.0033 |
| UCCUCCUACAGCUUGCAUAGUAUUUACAUA | 0.33 ± 0.042 | 0.0102 ± 0.0038 |
| UCCACCAACAGCUUGCAUAGUAUUUAGUAA | 0.644 ± 0.039 | 0.0342 ± 0.0071 |
| UCCUCGUACAGCUUGCAUUGUAUUUAGUUA | 0.979 ± 0.036 | 0.0298 ± 0.0072 |
| UCCUGGUACAGCUUGCAUAGUAUUUAGGUA | 0.0789 ± 0.017 | 0.0128 ± 0.0032 |
| UCCUGGAUGUGCUUGCAUUGUAUAUAGUUA | 0.00712 ± 0.0026 | 0.0048 ± 0.0032 |
| UCCUCCUACACCUUGCAUAGUAUUUAGUUA | 0.863 ± 0.046 | 0.0435 ± 0.0061 |
| UCCUGGAUCAGGUUGCAUUGUAUUUAGUUA | 0.122 ± 0.015 | 0.00468 ± 0.0023 |
| UCCUGGAACAGCUUGCAUAGUAAAUAGUUA | 0.36 ± 0.035 | 0.00869 ± 0.0044 |
| UCCACCUACAGACUUGCAUAGUAUUUAGUUA | 0.606 ± 0.06 | 0.0272 ± 0.0043 |
| UCCUGCUACAGCUUGCAUUGUAUUUAGAUA | 0.226 ± 0.027 | 0.0085 ± 0.003 |
| UCCUGGAUCAGCUUGCAUAGUAUUAUGAAA | 0.126 ± 0.027 | 0.00315 ± 0.0024 |
| UCGACCUACAGCUUGCAUUCUAUUUAGUAA | 0.184 ± 0.04 | 0.00296 ± 0.0022 |
